# Laboratory results as given in the BET-seq Pho4 binding data (Le et al. 2018).
# Some of the results follow. The energies were worked out here from pooled read counts, against the library average; single values are noisy.
# Molecular target: T1, Pho4 (S. cerevisiae) (UniProt P07270)
# T1 sequence: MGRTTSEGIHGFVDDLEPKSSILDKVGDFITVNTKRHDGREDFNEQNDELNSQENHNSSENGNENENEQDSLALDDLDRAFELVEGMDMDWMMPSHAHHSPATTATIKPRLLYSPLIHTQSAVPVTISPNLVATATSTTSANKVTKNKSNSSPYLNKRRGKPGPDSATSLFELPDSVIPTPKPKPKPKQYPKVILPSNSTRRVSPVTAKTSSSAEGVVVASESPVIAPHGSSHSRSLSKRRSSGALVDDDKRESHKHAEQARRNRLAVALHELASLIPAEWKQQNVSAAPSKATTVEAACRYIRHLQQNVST
# Assay: relative binding free energy (BET-seq); higher = weaker binding
# Details: reference: library average
row,Sequence,relative binding free energy [kcal/mol]
1,AGGGTCACGTGCTGGT,-0.05
2,CGTGGCACGTGCGGTA,-0.23
3,GGAACCACGTGGGGCG,-0.02
4,TATCGCACGTGAAGTT,0.22
5,CTCGTCACGTGGTTTG,0.17
6,TTAAGCACGTGCGGTT,-0.19
7,ATTTTCACGTGACGTT,0.36
8,GTTTACACGTGTTGTT,0.18
9,TAGTGCACGTGTAGGG,-0.01
10,GTAGTCACGTGAGAGG,0.37
11,TAAGGCACGTGTGGAA,-0.1
12,AGTTGCACGTGTTGTG,0.09
13,TGCGTCACGTGGTATG,0.02
14,GGAATCACGTGTAAGT,0.27
15,ATATTCACGTGCTGTT,0.11
16,CGTGTCACGTGGATGA,0.15
17,GATTACACGTGGGGTT,0.05
18,TTGGACACGTGTAGTT,0.05
19,ATGGGCACGTGATACG,-0.02
20,TAGGTCACGTGTGTGA,0.14
21,GGGAGCACGTGATCGG,0.12
22,TTCAGCACGTGGCGGA,-0.04
23,ATGTGCACGTGGGCTG,-0.16
24,GGATTCACGTGCGTAG,0.31
25,CGTCGCACGTGTTATG,0.06
26,TTGTACACGTGGTACT,-0.01

row,Sequence,relative binding free energy [kcal/mol]
1,TAGAGCACGTGGTTCT,-0.19
2,ATTGACACGTGTGGAT,0.02
3,AGTAACACGTGGAGGG,0.01
4,TGGGCCACGTGTTAAT,-0.01
5,TATAACACGTGTTATA,-0.05
6,TTGGTCACGTGTAGGA,0.12
7,GTACGCACGTGTGGGG,-0.08
8,ATTTTCACGTGAGGTA,0.42
9,TGTGTCACGTGCTTTC,0.02
10,GTTTCCACGTGTGGGC,0.12
11,CTTTACACGTGTATGT,-0.12
12,GGTCGCACGTGAGGCT,0.42
13,CGTGTCACGTGTGCGA,0.03
14,ATGTACACGTGGGGAA,0.03
15,TTGATCACGTGTGTAG,0.15
16,TTTTGCACGTGGGGGG,-0.11
17,TAGGTCACGTGCGAGG,0.06
18,ACTAGCACGTGTTATG,0
19,TTTTGCACGTGTCGTC,-0.06
20,GATGGCACGTGTGTCT,0.06
21,ATAGACACGTGGGGTA,-0.2
22,CGGGTCACGTGCGGAT,0.07
23,TTGTTCACGTGACGGC,0.35
24,TGCGTCACGTGCATGT,0.11
25,AGTATCACGTGAGTGC,0.25
26,TGCGGCACGTGGGATT,-0.19

row,Sequence,relative binding free energy [kcal/mol]
1,TTTGGCACGTGGGTAG,-0.18
2,CGGTTCACGTGTTAGT,0.34
3,GTGGTCACGTGGAAGA,0.22
4,AAAAGCACGTGAGGGG,0.11
5,ACCGGCACGTGGGCGT,-0.13
6,CGGCGCACGTGGGCTG,-0.33
7,ATGTACACGTGGAGGT,-0.01
8,GGTGGCACGTGTATCT,-0.05
9,GGGATCACGTGTTTTC,0.28
10,TTGTGCACGTGAATGA,0.19
11,TGAGTCACGTGGAATT,0.17
12,GATTTCACGTGCTTGG,0.4
13,AAGTTCACGTGAGAGA,0.44
14,GGGCACACGTGGCGGT,-0.02
15,GTATTCACGTGCCGGG,0.25
16,GGTGCCACGTGAGGTT,0.3
17,CATGGCACGTGTGAGG,-0.03
18,TAGGTCACGTGTGTCC,0.27
19,TAGTGCACGTGATTTG,0.12
20,GCCGGCACGTGAGGGC,0.24
21,TATTTCACGTGGTGTA,0.17
22,ATTGTCACGTGGAAAA,0.2
23,AGTTGCACGTGTATAG,0
24,CGGGACACGTGTCTGT,0.05
25,AAATGCACGTGAAGGG,0.29
26,CAGTTCACGTGGGAGA,0.2

row,Sequence,relative binding free energy [kcal/mol]
1,GTTAACACGTGTGTAT,0.19
2,GTCTTCACGTGCAGTG,0.34
3,CGAAGCACGTGTAGGT,0.01
4,AATGTCACGTGAGGGA,0.24
5,GAGGACACGTGCTGGG,0.03
6,AGTGTCACGTGGGTAT,-0.11
7,TAAATCACGTGGTCTG,0.16
8,TTTTGCACGTGGACTT,0.08
9,GGGGGCACGTGGTGAG,-0.09
10,CGTGGCACGTGACTGT,-0.08
11,ACTTTCACGTGGGAGT,0.14
12,TGGTTCACGTGAGTAA,0.34
13,GTTGTCACGTGATTTT,0.28
14,ATGCGCACGTGGAGGG,-0.16
15,TGTTTCACGTGAGGCG,0.38
16,GTAGGCACGTGCTGGG,-0.12
17,TTGTGCACGTGGTCGG,-0.06
18,ACGGTCACGTGGGTGG,-0.05
19,ACTGTCACGTGGCTTG,0.06
20,AATGGCACGTGGGCCT,-0.19
21,TTTTACACGTGTCATG,0.1
22,TACTGCACGTGTTCGT,0.06
23,ATTATCACGTGTGAGC,0.29
24,CGTCACACGTGTGAGG,0.2
25,GTAACCACGTGGGTTT,-0.07
26,TTGGACACGTGTAACG,0.26

row,Sequence,relative binding free energy [kcal/mol]
1,TGTTGCACGTGGTTTC,0.05
2,GTAGGCACGTGCGCGG,-0.34
3,GGCTTCACGTGTGTTT,0.28
4,CGAGGCACGTGAGAGG,0.09
5,CCGTCCACGTGGGGGG,-0.17
6,GAAGGCACGTGGATAG,-0.08
7,AGATTCACGTGGTGTT,0.18
8,ATATACACGTGGTTAG,-0.07
9,GCGCGCACGTGAAGGG,0.13
10,TGAATCACGTGACGAG,0.51
11,ATGTGCACGTGGGTGG,-0.17
12,GCTTTCACGTGTCTTT,0.37
13,ATAGACACGTGTTGGG,0.03
14,GTTGACACGTGAGTCG,0.23
15,GATTACACGTGGAGGG,-0.02
16,CGTGTCACGTGAAGCG,0.3
17,AATCGCACGTGGTTGT,-0.11
18,GGAGGCACGTGAATTT,0.41
19,TTGGACACGTGGCAGA,0.18
20,TTAGTCACGTGGACAT,0.15
21,CATGTCACGTGGTGTA,-0.06
22,GGTCTCACGTGCAGGT,0.42
23,ATGGGCACGTGCTTGT,-0.17
24,GGACGCACGTGTTGGC,0.01
25,TAATACACGTGGTAAG,-0.03
26,GATTGCACGTGTCGAT,0.21

row,Sequence,relative binding free energy [kcal/mol]
1,TTTCGCACGTGTATTA,0.24
2,AGGATCACGTGGGCGT,0.05
3,TAGTTCACGTGGGATC,0.26
4,CGTGGCACGTGATGGG,-0.06
5,TGTAGCACGTGAATTA,0.12
6,TAATTCACGTGTAGAA,0.24
7,CGGTACACGTGGGGCA,-0.02
8,GGAATCACGTGACGGG,0.32
9,ATGGGCACGTGGTTGG,-0.08
10,CGGATCACGTGGGTTT,0.03
11,TTGTTCACGTGTCAGC,0.29
12,CGGGACACGTGAATTG,0.29
13,AGTAGCACGTGCGTGA,-0.26
14,GGGTCCACGTGGTGTA,0.1
15,TTGTTCACGTGATAAG,0.35
16,AGGGGCACGTGGTTGA,-0.2
17,GGCGCCACGTGGGCGT,-0.25
18,TTAAACACGTGGTGGG,-0.05
19,AGGTCCACGTGTTAGT,-0.07
20,AGGTTCACGTGCTCTG,0.26
21,TGGCGCACGTGGCAGA,0.01
22,GGGTACACGTGTGTAC,0.05
23,TGACTCACGTGGCGGT,0.13
24,GTGATCACGTGGGTAG,0.09
25,TATGTCACGTGGGAAA,-0.09
26,CGTGTCACGTGAACGG,0.21

row,Sequence,relative binding free energy [kcal/mol]
1,TTTAGCACGTGTAGAG,-0.12
2,ATGTACACGTGGTACG,-0.03
3,ATGTGCACGTGGCTAT,-0.17
4,AGTATCACGTGACTGG,0.22
5,GGACACACGTGGGTGC,0.04
6,GTAGGCACGTGATTGC,-0.01
7,GCGGGCACGTGTTATG,0.07
8,TGCGCCACGTGGTTGG,-0.2
9,CGAGACACGTGGATGG,0.05
10,AAGTACACGTGCGGGT,0.01
11,AGGTTCACGTGATATG,0.41
12,GTGGTCACGTGGTGCA,0.11
13,TGTGCCACGTGGAGCT,-0.12
14,ATGTGCACGTGGTACA,-0.15
15,TAAGACACGTGCGTTG,0.01
16,TAAAGCACGTGGGGGC,-0.23
17,TTGTGCACGTGTGTTA,0.08
18,AGTCTCACGTGTGCTG,0.15
19,GCGGTCACGTGAGGTG,0.33
20,TTTATCACGTGGGTGC,-0.08
21,TATTGCACGTGCGCGT,-0.16
22,TTCGTCACGTGATGGC,0.22
23,AGAATCACGTGTGGGG,0.16
24,TTCGTCACGTGAGGCG,0.26
25,TTACGCACGTGGAAGT,-0.06
26,ATTAGCACGTGAATGA,0.12

row,Sequence,relative binding free energy [kcal/mol]
1,TGTACCACGTGGGTAA,0.05
2,TTTTTCACGTGCCGTG,0.29
3,TATGGCACGTGGGGTG,-0.19
4,TTTGTCACGTGAACTT,0.18
5,ATATTCACGTGTATAT,0.35
6,TATATCACGTGTTACT,0.18
7,GGATGCACGTGAAAGT,0.17
8,TTGCTCACGTGAGGAG,0.31
9,GCTGGCACGTGGGATG,-0.13
10,GTATGCACGTGTATGG,-0.04
11,AATGTCACGTGTTGTT,0.17
12,GTGTGCACGTGGGCCC,-0.1
13,TTCGGCACGTGTGGAG,-0.05
14,AGTGACACGTGTTCGG,0.03
15,GATTTCACGTGGATAG,0.46
16,GATTGCACGTGGGGAG,-0.05
17,TAGGTCACGTGGGCAA,0.01
18,GTGAGCACGTGAGAGA,0.24
19,AGGGGCACGTGGGAAA,-0.1
20,GGGGGCACGTGTACGC,-0.16
21,GGCAACACGTGTGGGG,0.18
22,GTTAGCACGTGGTTTT,0.04
23,GTCGGCACGTGTTTTT,0.09
24,TGGGACACGTGTCTTG,0.04
25,AAATTCACGTGTTAGT,0.15
26,CGTATCACGTGACGGG,0.14

row,Sequence,relative binding free energy [kcal/mol]
1,ATTGACACGTGGCTGG,-0.07
2,TAGTTCACGTGCGGCT,0.27
3,TAGGTCACGTGTGGTG,0.13
4,AGGGGCACGTGTGACA,0.03
5,TTAAACACGTGGATAT,0.08
6,GATGGCACGTGGTTCA,-0.01
7,ATGGTCACGTGGATCT,0.09
8,ATGGCCACGTGTGATA,0.05
9,TAAATCACGTGAAGGG,0.27
10,GTGCACACGTGTGATT,0.16
11,TAATGCACGTGACATG,0.21
12,TGGTCCACGTGATGAG,0.2
13,CGTGTCACGTGAGGGA,0.11
14,CGGAACACGTGGGGGA,-0.05
15,TGGGACACGTGTTGAA,0.05
16,TTGACCACGTGTGAGG,-0.03
17,TGATTCACGTGTTCTA,0.28
18,GATGGCACGTGTGACG,0
19,TTATTCACGTGCGGTG,0.12
20,TATGACACGTGATGGG,0.15
21,AGCGACACGTGGATGT,0.06
22,AGTTGCACGTGAGAAG,0.26
